Experimental findings from the supplement of paper PMC7335073 are described below.

The full ranking holds about 4,100 sequences; the median of “relative CpG methylation activity (normalised to average over all NNNCGNNN flanks)” is about 0.87, and the highest 2% start at about 2.4. The list shows a part of the results.

The target of the experiment is DNMT3A catalytic domain (mouse) (UniProt O88508). Put plainly: relative CpG methylation activity (normalised to average over all NNNCGNNN flanks) (relative (1 = mean)); higher = more methylation of the central CpG. The note with it: system: in vitro, murine catalytic domain; CpG state: hemimethylated substrate pool; residues: 608-908. The method, then: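 Deep enzymology: a pool of dsDNA substrates with a central CpG flanked by 10 random nucleotides on each side was methylated by the murine DNMT3A or DNMT3B catalytic domain (0.8 mM SAM, 37 °C, 60 min). Methylation was then read out by hairpin ligation, bisulfite conversion and NGS. Values are the average methylation of each NNNCGNNN context (±3 flanks; the outer flanks are random and averaged over), normalised to the overall mean, so 1 = average activity.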
Turning to CTACGAGT, the “relative CpG methylation activity” value was 1.7.
Regarding TCCCGGTT, the “relative CpG methylation activity” value amounted to 0.65.
TTCCGCCA: the “relative CpG methylation activity” value worked out at 2.2.
For the sequence ACTCGATA, the “relative CpG methylation activity” value is 0.844.
As for CATCGAAA, the “relative CpG methylation activity” value is 0.654.
The same measure for CTACGTCA: 2.51.
On to AGACGCTC, for which the “relative CpG methylation activity” value was 1.49.
Take CGACGCGG: the “relative CpG methylation activity” value is 0.194.
Take CTCCGGCT: the “relative CpG methylation activity” value came out at 1.42.
On to CAGCGTTA, for which the “relative CpG methylation activity” value was found to be 0.588.
Regarding TGACGGTA, the “relative CpG methylation activity” value came out at 0.524.
As to CGACGAGC, the “relative CpG methylation activity” value worked out at 1.31.
As for AGTCGGGG, the “relative CpG methylation activity” value amounted to 0.0893.
For ACGCGGGG, the “relative CpG methylation activity” value came to 0.494.
As for AGTCGGGA, the “relative CpG methylation activity” value was 0.423.
Take TCGCGACC: the “relative CpG methylation activity” value is 0.92.
For the sequence TACCGGGG, the “relative CpG methylation activity” value was 0.301.
Regarding AATCGGTC, the “relative CpG methylation activity” value was found to be 0.38.
Regarding GATCGGTG, the “relative CpG methylation activity” value is 0.139.
On to ACCCGTTA, for which the “relative CpG methylation activity” value was found to be 1.12.
For CCTCGCTA, the “relative CpG methylation activity” value came out at 1.65.
Consider AAGCGCTG, for which the “relative CpG methylation activity” value amounted to 0.789.
In the case of GTTCGTCG it was 1.19.
As for GGACGGAG, the “relative CpG methylation activity” value is 0.703.
Regarding CTCCGCCT, the “relative CpG methylation activity” value worked out at 2.45.
The same measure for GTCCGGCT: 1.47; for TCCCGGCT: 0.955.
GTCCGCAA: the “relative CpG methylation activity” value was determined as 1.6.
Turning to TTTCGAGG, the “relative CpG methylation activity” value came out at 0.481.
Turning to TTACGATA, the “relative CpG methylation activity” value turned out to be 1.9.
Take TCACGATG: the “relative CpG methylation activity” value stood at 0.606.
With TTGCGCGG, the “relative CpG methylation activity” value worked out at 0.8.
With ATGCGCCG, the “relative CpG methylation activity” value was 2.39.
On to ATGCGCTC, for which the “relative CpG methylation activity” value worked out at 2.02.
For the sequence TCGCGGTA, the “relative CpG methylation activity” value is 0.918.
For CATCGTCC, the “relative CpG methylation activity” value came out at 1.28.
For the sequence CACCGCGC, the “relative CpG methylation activity” value was 0.78.
With TCCCGCGT, the “relative CpG methylation activity” value turned out to be 0.745.
In the case of TTTCGTCG it was 1.44.
In the case of TATCGTTG it was 0.26; in that of GGGCGGCA, 0.323; in that of AGGCGATC, 1.05.
Regarding CCCCGCAG, the “relative CpG methylation activity” value was 0.612.
For ACACGAGG, the “relative CpG methylation activity” value was 0.735.
Consider TGGCGGCT, for which the “relative CpG methylation activity” value was 0.294.
For AGTCGGGC, the “relative CpG methylation activity” value was 0.438.
As to GGCCGTCA, the “relative CpG methylation activity” value is 1.15.
The same measure for CGGCGTAT: 0.347.
Take CTTCGTGA: the “relative CpG methylation activity” value stood at 0.6.
The same measure for ACCCGGCT: 1.51; for ATGCGTGT: 0.505.
CACCGCTC: the “relative CpG methylation activity” value worked out at 1.78.
Regarding CCACGGGG, the “relative CpG methylation activity” value came to 0.822.
As for ACTCGTGG, the “relative CpG methylation activity” value was 0.361.
In the case of TTACGTAG, the “relative CpG methylation activity” value was found to be 1.34.
In the case of ACACGCGA, the “relative CpG methylation activity” value was found to be 1.22.
For the sequence TAACGTAA, the “relative CpG methylation activity” value was found to be 0.985.
As for GTGCGTCA, the “relative CpG methylation activity” value was 1.88.
The same measure for AAACGGTT: 0.308; for GCTCGACG: 0.796; for TTCCGCTA: 2.3.
With AAACGAAT, the “relative CpG methylation activity” value amounted to 0.506.
GTGCGGTC: the “relative CpG methylation activity” value came to 1.39.
The same measure for AAACGTAA: 0.891; for GGTCGCTC: 1.34.
For the sequence ATACGCTT, the “relative CpG methylation activity” value worked out at 2.67.
For TAACGGAC, the “relative CpG methylation activity” value was 0.971.
The same measure for CCACGGCT: 1.26.
Regarding AGACGGAA, the “relative CpG methylation activity” value came out at 0.645.
Regarding ATTCGGGC, the “relative CpG methylation activity” value worked out at 0.787.
For the sequence TCACGTTA, the “relative CpG methylation activity” value was 1.39.
For GCGCGGAC, the “relative CpG methylation activity” value was 1.13.
With CTGCGGTC, the “relative CpG methylation activity” value came to 1.6.
In the case of TGACGCCC, the “relative CpG methylation activity” value was found to be 1.33.
For ACTCGCTT, the “relative CpG methylation activity” value is 1.97.
Regarding GGTCGGCT, the “relative CpG methylation activity” value was 0.702.
For the sequence TTACGGTA, the “relative CpG methylation activity” value was 1.48.
For TGCCGATG, the “relative CpG methylation activity” value was found to be 0.451.
The same measure for GTGCGAGA: 1.33; for AGCCGCGT: 0.641; for ATGCGGTG: 0.407.
In the case of CAACGTAT, the “relative CpG methylation activity” value is 0.658.
The same measure for GTCCGTCA: 2.41; for GACCGAGC: 1.78.
For TGTCGGTG, the “relative CpG methylation activity” value was 0.463.
Turning to TCACGAGT, the “relative CpG methylation activity” value was 1.2.
Turning to CAGCGTTC, the “relative CpG methylation activity” value was 0.639.
AATCGTAC: the “relative CpG methylation activity” value worked out at 0.254.
In the case of GACCGACA it was 1.18; in that of AATCGACG, 0.266.
Regarding TGACGAGT, the “relative CpG methylation activity” value was determined as 0.36.
In the case of ATTCGAAA, the “relative CpG methylation activity” value amounted to 1.06.
On to CCGCGGTG, for which the “relative CpG methylation activity” value is 0.183.
In the case of GAACGGCT it was 0.892; in that of TCGCGCCG, 1.28.
The same measure for CAACGACT: 0.595.
GATCGAAT: the “relative CpG methylation activity” value was 0.216.
For the sequence TCCCGGGT, the “relative CpG methylation activity” value was 0.556.
Turning to TAGCGTTG, the “relative CpG methylation activity” value stood at 0.321.
In the case of CGACGACA, the “relative CpG methylation activity” value is 0.666.
Consider TTACGAGG, for which the “relative CpG methylation activity” value was determined as 1.2.
On to GTGCGTGC, for which the “relative CpG methylation activity” value came out at 1.11.
As to CCTCGAGG, the “relative CpG methylation activity” value turned out to be 0.427.
In the case of CTCCGCAA it was 1.65; in that of CAACGGGA, 0.628.
With TCGCGAAA, the “relative CpG methylation activity” value worked out at 0.693.
Regarding AGACGAGC, the “relative CpG methylation activity” value turned out to be 0.966.
The same measure for CTGCGCTA: 1.62.
For ACACGATC, the “relative CpG methylation activity” value amounted to 1.78.
On to TTTCGCTA, for which the “relative CpG methylation activity” value stood at 1.59.
